# Results as given in the supplement of paper PMC4604168 (melanoma cell lines).
# The list shows a part of the results. Most values come without repeats; read them as rough.
# Tests used:
# Experiment in all cases: cell count relative to DMSO control; melanoma cells; higher = more viable cells
# Conditions in all cases: library dose: low library concentration; 72 h
# MZ2-MEL = test system: MZ2-MEL
# MeWo = test system: MeWo
# RPMI7951 = test system: RPMI7951
# RVH-421 = test system: RVH-421
# SkMel28 = test system: SkMel28
# SkMel2 = test system: SkMel2
# SkMel30 = test system: SkMel30
# UACC62 = test system: UACC62
# 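Also: cell number obtained by counting DAPI-stained nuclei in high-throughput microscope images with image analysis software, screen run in 1,536-well plates.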
SMILES,cell count (MZ2-MEL),cell count (MeWo),cell count (RPMI7951),cell count (RVH-421),cell count (SkMel28),cell count (SkMel2),cell count (SkMel30),cell count (UACC62)
"O=C(/C=C/c1cccnc1)NCCCCC1CCN(C(=O)c2ccccc2)CC1 + CCCS(=O)(=O)Nc1ccc(F)c(C(=O)c2c[nH]c3ncc(Cl)cc23)c1F [PLX4720] (first compound 0.01 µM, partner dose 0.08 µM)",35.9%,99.1%,109%,58.4%,101%,46.7%,107%,105%
"CC1(C)CCC(c2ccc(Cl)cc2)=C(CN2CCN(c3ccc(C(=O)NS(=O)(=O)c4ccc(N[C@H](CCN5CCOCC5)CSc5ccccc5)c(S(=O)(=O)C(F)(F)F)c4)cc3)CC2)C1 + C[C@]1(O)C[C@@H](c2nc(-c3ccc4ccc(-c5ccccc5)nc4c3)c3c(N)nccn32)C1 [OSI906] (first compound 0.4 µM, partner dose 0.4 µM)",84.1%,68.9%,62.1%,66.3%,74.9%,70.9%,66.3%,76.2%
"CC1(C)CCC(c2ccc(Cl)cc2)=C(CN2CCN(c3ccc(C(=O)NS(=O)(=O)c4ccc(N[C@H](CCN5CCOCC5)CSc5ccccc5)c(S(=O)(=O)C(F)(F)F)c4)cc3)CC2)C1 + C[C@@H](Oc1cc(-c2cnn(C3CCNCC3)c2)cnc1N)c1c(Cl)ccc(F)c1Cl [Crizotinib] (first compound 0.4 µM, partner dose 0.2 µM)",92%,72.2%,64.8%,58%,117%,90%,77.2%,101%
"O=C(/C=C/c1cccnc1)NCCCCC1CCN(C(=O)c2ccccc2)CC1 + Cn1c(Nc2ccc(C(F)(F)F)cc2)nc2cc(Oc3ccnc(-c4ncc(C(F)(F)F)[nH]4)c3)ccc21 [CHIR265] (first compound 0.01 µM, partner dose 0.08 µM)",39.5%,73.7%,73.6%,67.8%,63.5%,48.9%,56.2%,63.9%
"O=C(/C=C/c1cccnc1)NCCCCC1CCN(C(=O)c2ccccc2)CC1 + Nc1ccn([C@@H]2O[C@H](CO)[C@@H](O)C2(F)F)c(=O)n1 [gemcitabine] (first compound 0.01 µM, partner dose 0.0004 µM)",39.4%,104%,95.3%,54.6%,89.6%,34.5%,116%,108%
"O=C(/C=C/c1cccnc1)NCCCCC1CCN(C(=O)c2ccccc2)CC1 + C[C@@H](N)c1ccc(C(=O)Nc2ccnc3[nH]ccc23)cc1 [RKI983] (first compound 0.01 µM, partner dose 0.4 µM)",19.2%,88.7%,78.7%,21.8%,98.8%,27.6%,94%,90.1%
"CC1(C)CCC(c2ccc(Cl)cc2)=C(CN2CCN(c3ccc(C(=O)NS(=O)(=O)c4ccc(N[C@H](CCN5CCOCC5)CSc5ccccc5)c(S(=O)(=O)C(F)(F)F)c4)cc3)CC2)C1 + CNC(=O)c1cc(Oc2ccc(NC(=O)Nc3ccc(Cl)c(C(F)(F)F)c3)cc2)ccn1 [sorafenib] (first compound 0.4 µM, partner dose 0.4 µM)",86.9%,58.6%,52.4%,75.4%,80.7%,98.3%,64.7%,91.8%
"Cc1ccc(Nc2nccc(N(C)c3ccc4c(C)n(C)nc4c3)n2)cc1S(N)(=O)=O [Pazopanib] + COCC[n+]1c2c(n(Cc3cnccn3)c1C)C(=O)c1ccccc1C2=O [YM155] (first compound 0.4 µM, partner dose 0.0004 µM)",44.1%,123%,96.9%,103%,84.1%,101%,68.6%,95.4%
"CC1(C)CCC(c2ccc(Cl)cc2)=C(CN2CCN(c3ccc(C(=O)NS(=O)(=O)c4ccc(N[C@H](CCN5CCOCC5)CSc5ccccc5)c(S(=O)(=O)C(F)(F)F)c4)cc3)CC2)C1 + CCCCCCCCc1ccc(CCC(N)(CO)CO)cc1 [fingolimod] (first compound 0.4 µM, partner dose 2 µM)",97.2%,68.2%,48.4%,87.8%,92.1%,83.3%,80.8%,85.4%
"Cc1ccc(Nc2nccc(N(C)c3ccc4c(C)n(C)nc4c3)n2)cc1S(N)(=O)=O [Pazopanib] + Cn1c(Nc2ccc(C(F)(F)F)cc2)nc2cc(Oc3ccnc(-c4ncc(C(F)(F)F)[nH]4)c3)ccc21 [CHIR265] (first compound 0.4 µM, partner dose 0.08 µM)",78%,80.9%,61.3%,71.2%,69.5%,98.6%,54%,51.4%
"O=C(/C=C/c1cccnc1)NCCCCC1CCN(C(=O)c2ccccc2)CC1 + C=CCNC1=C2C[C@@H](C)C[C@H](OC)[C@H](O)[C@@H](C)/C=C(\C)[C@H](OC(N)=O)[C@@H](OC)/C=C\C=C(/C)C(=O)NC(=CC1=O)C2=O [Tanespimycin] (first compound 0.01 µM, partner dose 0.002 µM)",45.9%,93.9%,94.3%,45.8%,103%,40%,86.1%,101%
"Cc1ccc(Nc2nccc(N(C)c3ccc4c(C)n(C)nc4c3)n2)cc1S(N)(=O)=O [Pazopanib] + COc1ccc(Cl)c(Nc2nc3ccccc3nc2NS(=O)(=O)c2cccc(NC(=O)C(C)(C)N)c2)c1 [XL147] (first compound 0.4 µM, partner dose 0.8 µM)",71.4%,89%,90%,81%,94.1%,106%,89.5%,85.3%
"Cc1ccc(Nc2nccc(N(C)c3ccc4c(C)n(C)nc4c3)n2)cc1S(N)(=O)=O [Pazopanib] + Nc1ccn([C@@H]2O[C@H](CO)[C@@H](O)C2(F)F)c(=O)n1 [gemcitabine] (first compound 0.4 µM, partner dose 0.0004 µM)",79.8%,112%,82.6%,103%,89%,103%,86%,85.2%
"Cc1ccc(Nc2nccc(N(C)c3ccc4c(C)n(C)nc4c3)n2)cc1S(N)(=O)=O [Pazopanib] + C[C@]1(c2nc3c(C(N)=O)cccc3[nH]2)CCCN1 [Veliparib] (first compound 0.4 µM, partner dose 1.4 µM)",70.1%,92%,75.2%,72.7%,75.7%,91.6%,80.6%,84.4%
"CC1(C)CCC(c2ccc(Cl)cc2)=C(CN2CCN(c3ccc(C(=O)NS(=O)(=O)c4ccc(N[C@H](CCN5CCOCC5)CSc5ccccc5)c(S(=O)(=O)C(F)(F)F)c4)cc3)CC2)C1 + Cn1c(=O)n(-c2ccc(C(C)(C)C#N)cc2)c2c3cc(-c4cnc5ccccc5c4)ccc3ncc21 [NVP-BEZ235] (first compound 0.4 µM, partner dose 0.004 µM)",89.8%,64.8%,59.7%,79.4%,93.3%,50.9%,70.9%,110%
"O=C(/C=C/c1cccnc1)NCCCCC1CCN(C(=O)c2ccccc2)CC1 + CNC(=O)c1cc(Oc2ccc(NC(=O)Nc3ccc(Cl)c(C(F)(F)F)c3)cc2)ccn1 [sorafenib] (first compound 0.01 µM, partner dose 0.4 µM)",42.7%,114%,109%,59.7%,88.2%,17.8%,111%,105%
"CC1(C)CCC(c2ccc(Cl)cc2)=C(CN2CCN(c3ccc(C(=O)NS(=O)(=O)c4ccc(N[C@H](CCN5CCOCC5)CSc5ccccc5)c(S(=O)(=O)C(F)(F)F)c4)cc3)CC2)C1 + CN1CCN(c2ccc3nc(-c4c(N)c5c(F)cccc5[nH]c4=O)[nH]c3c2)CC1 [Dovitinib] (first compound 0.4 µM, partner dose 0.1 µM)",90.3%,68.2%,61.1%,77.6%,92.4%,89.8%,56.9%,94.7%
"Cc1ccc(Nc2nccc(N(C)c3ccc4c(C)n(C)nc4c3)n2)cc1S(N)(=O)=O [Pazopanib] + CN1CCN(c2ccc3nc(-c4c(N)c5c(F)cccc5[nH]c4=O)[nH]c3c2)CC1 [Dovitinib] (first compound 0.4 µM, partner dose 0.1 µM)",79.4%,99.6%,82.3%,89.5%,102%,105%,80.2%,87.7%
"CC1(C)CCC(c2ccc(Cl)cc2)=C(CN2CCN(c3ccc(C(=O)NS(=O)(=O)c4ccc(N[C@H](CCN5CCOCC5)CSc5ccccc5)c(S(=O)(=O)C(F)(F)F)c4)cc3)CC2)C1 + NC(=O)c1ccc(N(C(N)=O)c2c(F)cccc2F)nc1-c1ccc(F)cc1F [VX702] (first compound 0.4 µM, partner dose 0.4 µM)",97.5%,75.5%,65.2%,87.2%,87.7%,82.9%,67.5%,95.8%
"Cc1ccc(Nc2nccc(N(C)c3ccc4c(C)n(C)nc4c3)n2)cc1S(N)(=O)=O [Pazopanib] + C=C(c1ccc(C(=O)O)cc1)c1cc2c(cc1C)C(C)(C)CCC2(C)C [Bexarotene] (first compound 0.4 µM, partner dose 2 µM)",78%,108%,90.7%,114%,88.3%,97.2%,86.7%,96.3%
